{"source": "PubChem BioAssay AID686978", "about": "(National Center for Advancing Translational Sciences (NCATS), 2013)", "note": "“And” between values parts separate entries of the source, which are not always exact repeats. Identical values can stand only once. Hit rate of the full screen: of about 420,000 compounds, about 64,000 (15%) were called active. Inconclusive means that the source gave no clear call. Such entries were picked first, then a sample of the others. Calls follow the shape of the dose curve; as a rule, active = well fitted inhibition curve with a large enough effect; inconclusive = small, poorly fitted or top-dose-only effect; inactive = flat fitted curve, though single readings scatter. A potency beside an inconclusive call is a rough fit, not a confirmed value. % is scaled to controls: 0 for no effect and ±100 for the full control effect; potency is read from the fitted curve at half-maximal effect; tags tell the direction and shape of the fitted curve.", "data": [{"experiment": "qHTS for Inhibitors of human tyrosyl-DNA phosphodiesterase 1 (TDP1): qHTS in cells in absence of CPT; also: nearly all actives have a fitted effect of over 55% in size", "conditions": "DT40 Tdp1-/- hTDP1 cells, no CPT, ATP luminescence, 48 h; activity change, negative = growth inhibition: at 46.2 µM (top of the series)", "procedure,_shortened": "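Growth kinetics read by CellTiter-Glo luminescence after ≥48 hr at 37 °C. Cells: DT40 Tdp1-/- stably carrying human TDP1, 400 per well, compound exposure in the absence of CPT (DMSO vehicle).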", "values": [{"compound": "CCOC(=O)N1CCc2c(sc3c2c(=O)n(-c2ccccc2)c(=O)n3CC(=O)Nc2ccc(OC)cc2OC)C1", "Potency": "inconclusive: 20.6 µM [inhibitor, single point]"}, {"compound": "Cc1ccc2nc3c(c(Nc4ccccc4)c2c1)CCC3", "Potency": "inconclusive: 29.1 µM [inhibitor, single point]"}, {"compound": "CCOc1ccc(OCC)c(NC(=O)c2cc(S(=O)(=O)N3CCCC3)cn2C)c1", "Potency": "inconclusive: 16.4 µM [inhibitor, single point]"}, {"compound": "CCN1CCN(C(=S)NC(=O)c2cccs2)CC1", "Potency": "inconclusive: 18.4 µM [inhibitor, single point]"}, {"compound": "COc1ccc(C(=O)/C=C/C(=O)N(CC(=O)NC2CCCCC2)Cc2ccc(F)cc2)c(O)c1", "Potency": "active: 4.61 µM"}, {"compound": "O=C1CC(c2nc3ccccc3[nH]2)CN1c1ccccc1", "note": "(stereo not drawn)", "Potency": "inconclusive: 5.8 µM [inhibitor, partial curve]"}, {"compound": "NC(=O)c1cnn2c(C(F)(F)F)cc(-c3ccc(F)cc3)nc12", "Potency": "inconclusive: 25.9 µM [inhibitor, single point]"}, {"compound": "S=C(NCc1ccco1)Nc1ccc(Oc2ccc(Cl)cc2)cc1", "Potency": "inconclusive: 25.9 µM [inhibitor, single point]"}, {"compound": "CCOC(=O)N1CCc2c(sc(N)c2C#N)C1", "Potency": "inconclusive: 23.1 µM [inhibitor, single point]"}, {"compound": "CCOC(=O)N1CCC(N2CCCC(CO)(Cc3cccc(OC)c3)C2)CC1", "note": "(stereo not drawn)", "Potency": "inconclusive: 6.51 µM [inhibitor, full curve, poor fit]"}, {"compound": "COc1ccc(N2CCC(CNC(=S)Nc3c(C)cccc3C)C2)cc1", "note": "(stereo not drawn)", "Potency": "inconclusive: 25.9 µM [inhibitor, single point]"}, {"compound": "CCOc1ncccc1C(=O)Nc1ccc(C)c(S(=O)(=O)N2CCCCCC2)c1", "Potency": "inconclusive: 25.9 µM [inhibitor, single point]"}, {"compound": "Cc1nc2ccc(S(=O)(=O)N(CC(=O)Nc3ccc(F)cc3)Cc3ccccc3)cc2s1", "Potency": "inconclusive: 29.1 µM [inhibitor, single point]"}, {"compound": "Cc1[nH][nH]c(=O)c1C(c1ccc(F)cc1)c1c(C)[nH][nH]c1=O", "Potency": "inconclusive: 16.4 µM [inhibitor, partial curve]"}, {"compound": "COc1ccc(CCNc2ncnc3c2nnn3C)cc1", "Potency": "active: 20.6 µM"}, {"compound": "COc1ccc(C(=O)NC(C)Cc2c[nH]c3ccccc23)cc1", "note": "(stereo not drawn)", "Potency": "inconclusive: 29.1 µM [inhibitor, single point]"}, {"compound": "COC(=O)c1sc2cccc(F)c2c1S(=O)(=O)N1CCN(c2cccc(C)c2)C(C)C1", "note": "(stereo not drawn)", "Potency": "inconclusive: 29.1 µM [inhibitor, single point]"}, {"compound": "COc1n[nH]c(C(=O)Nc2cc(Cl)ccc2Cl)c1[N+](=O)[O-]", "Potency": "inconclusive: 29.1 µM [inhibitor, single point]"}, {"compound": "Cc1cc2c3ccccc3[nH]c(=O)n2n1", "Potency": "inactive"}, {"compound": "Cc1ccc(-c2cnn(-c3cccc([N+](=O)[O-])c3)c2N)cc1", "Potency": "inconclusive: 18.4 µM [inhibitor, partial curve]"}, {"compound": "CCOc1cc(N2CCOCC2)c(OCC)cc1NC(=O)CN1C(=O)N(C)C2(CCCCC2)C1=O", "Potency": "inactive"}, {"compound": "Cc1ccc([C@H]2N[C@]3(CCCN(Cc4ccc(Br)cc4)C3=O)[C@H]3C(=O)N(C)C(=O)[C@@H]23)cc1", "Potency": "active: 13 µM"}, {"compound": "COc1cc(/C=C2/C(=N)N3OC(C)=CC3=NC2=O)ccc1OCCOc1ccc(C)cc1", "Potency": "inconclusive: 4.61 µM [inhibitor, full curve]"}, {"compound": "CCOc1ccc(-n2nc3ccc(NC(=O)Cc4ccccc4)cc3n2)cc1", "Potency": "active: 3.66 µM"}, {"compound": "COc1ccc(NC(=O)C(=O)c2cn(CC(=O)N3CCCC3)c3ccccc23)cc1", "Potency": "active: 0.231 µM"}, {"compound": "O=C(Cc1ccccc1)N/N=C/c1ccc(OC(=O)/C=C\\c2ccco2)cc1", "Potency": "inactive"}, {"compound": "CCN(CC)S(=O)(=O)c1ccc(N2CCN(C)CC2)c(NC(=O)Nc2ccccc2F)c1", "Potency": "inconclusive: 23.1 µM [inhibitor, single point]"}, {"compound": "CC(C)(C)OC(=O)N1CCC(c2c(C(=O)N3CCN(C(=O)c4ccco4)CC3)cnn2-c2ccc(F)cc2F)CC1", "Potency": "inconclusive: 25.9 µM [inhibitor, single point]"}, {"compound": "CCc1cccc(NC(=O)CN(C)S(=O)(=O)c2ccc3[nH]c4c(c3c2)CCCC4)c1", "Potency": "inconclusive: 18.4 µM [inhibitor, single point]"}, {"compound": "COc1cccc(/C=C2\\SC(=S)N(c3cccnc3)C2=O)c1OC", "Potency": "inactive"}, {"compound": "C[C@H](NC(=O)[C@@H]1CCCN1C(=O)[C@@H]1CCCN1C(=O)c1ccc(Cl)cc1)c1ccccc1", "Potency": "inconclusive: 18.4 µM [inhibitor, partial curve]"}, {"compound": "CCc1ccccc1-n1c(N)c(C(=O)OC)c2nc3ccccc3nc21", "Potency": "inconclusive: 32.6 µM [inhibitor, single point]"}, {"compound": "Cc1ccc(CN2CC(C(=O)Nc3nc(C)cs3)CC2=O)cc1", "note": "(stereo not drawn)", "activity change, negative = growth inhibition": "inconclusive: -32.2% [inhibitor]"}, {"compound": "CC(C)Oc1cc(F)ccc1-c1cc(C(=O)Nc2cccc(C(F)(F)F)c2)[nH]n1", "Potency": "inconclusive: 23.1 µM [inhibitor, single point]"}, {"compound": "O=C1OCC/C1=C\\NCCCCCCCCN/C=C1\\CCOC1=O", "Potency": "inconclusive: 29.1 µM [inhibitor, single point]"}, {"compound": "CCCC1CCC(=NNC(=S)NCCc2ccccc2)CC1", "note": "(stereo not drawn)", "Potency": "active: 7.31 µM"}, {"compound": "CCOC(=O)c1cnc2c(Cl)cc(Cl)cc2c1Nc1ccccc1OC", "Potency": "inactive"}, {"compound": "CCOc1ccc(Cl)cc1-c1cc(C(=O)NCc2ccccc2)[nH]n1", "Potency": "inconclusive: 25.9 µM [inhibitor, single point]"}, {"compound": "COc1ccc(-c2cn3c(C)c(C(=O)Nc4cc(C)cc(C)c4)sc3n2)cc1", "Potency": "active: 16.4 µM"}, {"compound": "COc1ccccc1N(CC(=O)NCCSCc1ccco1)S(=O)(=O)c1ccccc1", "Potency": "active: 16.4 µM"}, {"compound": "Cc1nnc(NC(=O)CSCc2c(C)noc2C)s1", "Potency": "inactive"}, {"compound": "Cn1c(=O)c2ncn(CC(=O)Nc3ccc4c5c(cccc35)CC4)c2n(C)c1=O", "Potency": "inconclusive: 11.6 µM [inhibitor, partial curve]"}, {"compound": "Cc1ccc(-c2nnc3c4ccccc4c(C)nn23)cc1NC(=O)c1ccccc1", "Potency": "inconclusive: 3.26 µM [inhibitor, full curve]"}, {"compound": "COC(=O)c1ccc(Cn2nnc3c(=O)[nH]c(C4CCCN(S(=O)(=O)c5ccccc5Cl)C4)nc32)cc1", "note": "(stereo not drawn)", "Potency": "inconclusive: 11.6 µM [inhibitor, partial curve] and inconclusive: 18.4 µM [inhibitor, single point]"}, {"compound": "Cc1ccc(/C=c2\\sc3nc(-c4cccs4)nn3c2=O)o1", "Potency": "inconclusive: 35.5 µM [inhibitor, single point]"}, {"compound": "CCC12C(=Nc3c(Cl)cccc31)C[C@@H]1CCN3C(=O)CCC[C@H]2[C@H]13", "note": "(stereo partly drawn)", "Potency": "inactive and inconclusive: 35.5 µM [inhibitor, single point]"}, {"compound": "CCCC(=O)N1CCC1(C)C(=O)Nc1ccc(OC)c(OC)c1", "note": "(stereo not drawn)", "Potency": "inactive"}, {"compound": "Cc1[nH]c(C)c(S(=O)(=O)N2CCN(c3cccc(C(F)(F)F)c3)CC2)c1C(=O)N1CCCC1", "Potency": "inconclusive: 20.6 µM [inhibitor, single point]"}, {"compound": "COC(=O)c1[nH]c2ccccc2c1NC(=O)C(C)N1CC(C)OC(C)C1", "note": "(stereo not drawn)", "Potency": "inactive"}, {"compound": "O=C1c2ccccc2C(c2nnnn2-c2ccc3c(c2)OCCO3)N1CCCN1CCOCC1", "note": "(stereo not drawn)", "Potency": "inactive"}, {"compound": "O=C(C[C@H]1C[C@@H]2c3cc(NC(=O)Nc4ccccc4)ccc3O[C@@H]2[C@@H](CO)O1)NCC1CC1", "Potency": "inconclusive: 0.58 µM [inhibitor, partial curve, poor fit]"}, {"compound": "S=C(NC1CCCC1)N1CCN(c2ccccn2)CC1", "Potency": "inconclusive: 5.8 µM [inhibitor, full curve, poor fit]"}, {"compound": "CCOC(=O)c1c(NC(=O)CSc2nc3cccnc3n2C)sc(C(C)=O)c1C", "Potency": "active: 13 µM"}, {"compound": "CC(C)(O)C#Cc1ccc(C(=O)N2CCC(C(N)=O)(N3CCCCC3)CC2)cc1", "Potency": "inactive"}, {"compound": "COC(=O)Cn1c(CN2CCN(c3ccccc3F)CC2)nc2c1c(=O)n(C)c(=O)n2C", "Potency": "active: 8.2 µM"}, {"compound": "Cc1nc2ccccc2n1CC(=O)c1ccccc1", "Potency": "inconclusive: 18.4 µM [inhibitor, single point]"}, {"compound": "COc1ccc(N(CC(=O)NC2CC3CCC2C3)S(=O)(=O)c2ccc(C)cc2)cc1Cl", "note": "(stereo not drawn)", "Potency": "active: 23.1 µM"}, {"compound": "CCCCn1c(Nc2ccc(OC)cc2)nc2ccccc21", "Potency": "inconclusive: 20.6 µM [inhibitor, single point]"}, {"compound": "COc1ccc(N2C(=O)NC(NC(=O)c3ccncc3)(C(F)(F)F)C2=O)cc1", "note": "(stereo not drawn)", "Potency": "inactive"}, {"compound": "O=C(NC1CCC(O)CC1)c1ccc(-c2ccc([N+](=O)[O-])cc2)o1", "note": "(stereo not drawn)", "Potency": "active: 16.4 µM"}, {"compound": "C/C(=N\\O)C(=O)C(CN1CCCCC1)CN1CCCCC1", "Potency": "active: 2.59 µM"}, {"compound": "CC(C)(C)NC(=O)C(c1ccnc2ccccc12)n1c(=O)c(-c2cc3ccccc3[nH]2)nc2ccccc21", "note": "(stereo not drawn)", "Potency": "active: 18.4 µM"}, {"compound": "Cc1cccc(N=NC(=S)NNc2cccc(C)c2)c1", "Potency": "inconclusive: 29.1 µM [inhibitor, single point]"}, {"compound": "CC(C)Cc1ccc(S(=O)(=O)NCC2CCCO2)cc1", "note": "(stereo not drawn)", "Potency": "inconclusive: 7.31 µM [inhibitor, single point]"}, {"compound": "Nc1nc(=O)n(C2CCCO2)cc1Br", "note": "(stereo not drawn)", "Potency": "inactive"}, {"compound": "CCOC(=O)c1cc(C(=O)OCC)c(=O)[nH]c1C", "Potency": "inconclusive: 29.1 µM [inhibitor, single point]"}, {"compound": "O=C(CCc1nc(-c2ccccc2F)no1)NC1CCN(Cc2ccccc2)CC1", "Potency": "inconclusive: 23.1 µM [inhibitor, single point]"}, {"compound": "O=C(CNC(=O)c1ccncc1)N/N=C/c1ccc(O)cc1O", "Potency": "active: 18.4 µM"}]}]}
